Reference: PubChem BioAssay AID1461 (National Center for Advancing Translational Sciences (NCATS), 2008)
Out of some 220,000 compounds screened, about 2,300 (1%) were called active. Inconclusive means that the source gave no clear call. Such entries were picked first, then a sample of the others. Calls come from the whole dose curve; as a rule, active = well fitted inhibition curve with a large enough effect; inconclusive = small, poorly fitted or top-dose-only effect, or effect the other way; inactive = no such curve, though single readings can be large or run the other way. No potency is given beside an inconclusive call; the fits are too rough.

Each molecule was assayed against Neuropeptide S receptor (Homo sapiens) (UniProt Q6W5P4) (assay: qHTS Assay for Antagonists of the Neuropeptide S Receptor: cAMP Signal Transduction). Details: CHO-NPSR cells, cAMP TR-FRET, antagonist mode; activity change, negative = inhibition: at 38.3 µM (top of the series) unless noted.
Sequence of UniProt Q6W5P4 (Q6W5P4 whole entry, looked up): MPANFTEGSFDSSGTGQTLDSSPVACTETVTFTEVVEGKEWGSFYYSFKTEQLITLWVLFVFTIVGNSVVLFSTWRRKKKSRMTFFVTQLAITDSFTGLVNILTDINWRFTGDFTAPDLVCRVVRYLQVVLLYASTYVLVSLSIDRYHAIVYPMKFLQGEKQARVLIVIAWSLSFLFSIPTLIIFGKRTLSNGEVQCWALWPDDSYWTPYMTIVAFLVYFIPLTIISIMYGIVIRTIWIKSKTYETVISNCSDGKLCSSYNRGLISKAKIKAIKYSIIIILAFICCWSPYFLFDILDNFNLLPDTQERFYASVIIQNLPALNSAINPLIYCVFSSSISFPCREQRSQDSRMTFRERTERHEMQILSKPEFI
% is set by controls: 0 for no effect and ±100 for the full control effect; potency is the fitted concentration of half-maximal effect; tags give direction and shape of the fitted curve.
Note: nearly all actives have a fitted effect of over 50% in size.

| Compound | Potency | activity change, negative = inhibition |
| --- | --- | --- |
| Cc1nc([N+](=O)[O-])c(Br)n1CC(=O)c1ccc2ccccc2c1 | inconclusive [inhibitor, single point] | – |
| O=C1C=C(Nc2ccccc2O)c2ccccc2C1=O | inconclusive [inhibitor, single point] | – |
| Cc1ccc(C2(C)NC(=O)N(CC(=O)NCCC3=CCCCC3)C2=O)cc1 (stereo not drawn) | inconclusive [inhibitor, single point] | – |
| CC(/C=C1\N=C(SCc2ccccc2)SC1=O)=C\c1ccccc1 | – | inactive: 1.13% |
| COc1ccc(O)c(/C=N/NC(=O)c2ccc(CSc3nc(C)cc(C)n3)cc2)c1 | – | inactive: -3.7% |
| CC(C)(Oc1ccc(Br)cc1)C(=O)N1CCc2ccccc21 | inconclusive [inhibitor, single point] | – |
| CC(=O)N1CCN(c2ccccc2NC(=O)COc2ccc(Br)cc2)CC1 | inconclusive [inhibitor, partial curve] | – |
| Cc1cccc(N2CC(C(=O)OCC(=O)c3ccc(OC(=O)c4cccs4)cc3)CC2=O)c1C (stereo not drawn) | – | inactive: -8.12% [at 46.1 µM] |
| CCOC(=O)c1c(CSCc2ccccc2)oc2ccc(O)c(CN(C)C)c12 | inconclusive [activator, single point] | – |
| CCCCCCCSc1nnc(-c2ccccc2N)c(=O)[nH]1 | – | inactive: -13.6% |
| Cc1nn(-c2ccc(F)cc2)c2sc(C(=O)N3CCCCCC3)cc12 | inconclusive [inhibitor, partial curve] | – |
| CC1Cc2ccccc2N1c1ncnc2c1nnn2Cc1ccccc1 (stereo not drawn) | inconclusive [inhibitor, single point] | – |
| CCOC(=O)CNC(=O)Cc1ccc(Cl)cc1 | inconclusive [inhibitor, single point] | – |
| Cc1cc(NC(=O)c2cc3n(n2)C(C(F)(F)F)CC(c2ccc(Cl)c(Cl)c2)N3)no1 (stereo not drawn) | inconclusive [inhibitor, single point] | – |
| CCOC(=O)c1cnn(-c2ccccc2)c1NC(=O)c1cccs1 | inconclusive [inhibitor, full curve, poor fit] | – |
| O=C(O)CC(SCc1ccc(C(=O)O)o1)C(=O)O (stereo not drawn) | inconclusive [inhibitor, single point] | – |
| Cn1c(=O)c2c(nc(CN3CCN(Cc4ccccc4)CC3)n2Cc2ccc(Cl)cc2)n(C)c1=O | inconclusive [inhibitor, partial curve, poor fit] | – |
| CCOC(=O)c1c(N)sc(-c2ccccc2)c1C | inconclusive [activator, full curve, poor fit] | – |
| CC[C@@H](C)[C@@H](C(=O)N1CCN(C(=O)OC(C)(C)C)CC1)n1cc(CCCN=C(NC(=O)OC(C)(C)C)NC(=O)OC(C)(C)C)nn1 | inconclusive [activator, partial curve] | – |
| O=C(NC1CC1)c1ccc(-n2cccc2)cc1 | – | inactive: 6.4% |
| CCN(CC(=O)NCc1ccc(F)cc1)Cc1nc2cc(Cl)ccc2c(=O)[nH]1 | – | inactive: -4.73% [at 46.1 µM] |
| C=CC[n+]1c(-c2ccccc2)csc1NC(C)(C)C | – | inactive: -6.92% |
| COc1ccccc1-c1cc(C(=O)Nc2ccc(F)cc2F)no1 | inconclusive [activator, single point] | – |

| Compound | Potency | activity change, negative = inhibition |
| --- | --- | --- |
| Cc1nc(C)c(C(=O)OCC(=O)N2CCN(c3ccccc3)CC2)s1 | – | inactive: 0.261% [at 46.1 µM] |
| COC(=O)[C@@]1(Cc2ccc(F)cc2)[C@H]2c3cc(C(=O)N(C)C)n(Cc4ccccc4)c3C[C@H]2CN1C(=O)c1ccccc1 | – | inactive: -49.5% |
| O=S(=O)(NC1CCCCC1)c1cccc(-c2nnc(-c3ccccc3)o2)c1 | inconclusive [inhibitor, partial curve] | – |
| CC(C)N(Cc1nc(-c2ccc3c(c2)OCO3)no1)Cc1nccn1C | – | inactive: 7.3% |
| CC[C@@H](C)[C@H](NC(=O)OC(C)(C)C)c1nnc(S(=O)(=O)Cc2cc(C)ccc2C)o1 | active: 10 µM | – |
| Cc1ccc(C(c2nnnn2CS(=O)(=O)c2ccc(C)cc2)N2CCC(C)CC2)cc1 (stereo not drawn) | inconclusive [inhibitor, partial curve, poor fit] | – |
| CCN(CC(=O)Nc1ccccc1Br)C1CCCCC1 | inconclusive [inhibitor, single point] | – |
| COc1ccc(N2C(=O)CC2(/C=C/c2ccccc2OC)C(=O)NC2CCCC2)cc1 (stereo not drawn) | inconclusive [inhibitor, single point] | – |
| COc1nc(C)ccc1-c1noc(-c2ccccn2)n1 | – | inactive: -2.89% [at 46.1 µM] |
| CCOC(=O)c1ccccc1NC(=O)c1ccc2c(=O)n3c(nc2c1)CCCCC3 | inconclusive [inhibitor, full curve, poor fit] | – |
| COc1ccc(C)cc1NC(=O)c1ccc(NS(=O)(=O)c2cccc3cccnc23)cc1 | inconclusive [inhibitor, single point] | – |
| Cc1ccc(C(=O)N2NC(c3ccccc3F)C3C(=O)N(c4cccc(C)c4)C(=O)C32)cc1 (stereo not drawn) | – | inactive: 13.8% |
| COc1ccc(C(=O)c2ccccc2)c2c(O)ccc(C(=O)c3ccccc3)c12 | inconclusive [inhibitor, single point] | – |
| CCOc1cc(OCC)cc(C(=O)NC(=S)Nc2cccc(C(F)(F)F)c2)c1 | inconclusive [inhibitor, single point] | – |
| O=C(/C=C/c1ccccc1F)c1cccc([N+](=O)[O-])c1 | – | inactive: -9.43% |
| O=C(CN1C(=O)NC(Cc2ccccc2)(Cc2ccccc2)C1=O)NCC1CCCCC1 | inconclusive [inhibitor, single point] | – |
| CN(C(=O)CCl)C1CCCc2ccccc21 (stereo not drawn) | – | inactive: -31% |
| O=C(OCc1nnc(-c2ccc(Cl)cc2)o1)c1ccncc1 | – | inactive: -20.7% [at 46.1 µM] |
| CCC(C)(C)n1nnnc1C(c1cc2cc(C)ccc2[nH]c1=O)N1CCCc2ccccc21 (stereo not drawn) | inconclusive [inhibitor, single point] | – |
| O=[N+]([O-])c1ccc(-c2ccc(/C=N/c3c(-c4ccco4)nc4ccccn34)o2)cc1 | inconclusive [inhibitor, single point] | – |
| CCOC(=O)C(C)(C)N(Cc1ccc(C)cc1)S(=O)(=O)c1ccc(Cl)c([N+](=O)[O-])c1 | inconclusive [inhibitor, partial curve] | – |
| CCN1C(=S)SC(=O)C1=C1C=C(C)N(CCOC)C(C)=C1 | inconclusive [inhibitor, single point] | – |
| CCN(CC)S(=O)(=O)c1ccc2c(c1)nc(CCC(=O)OCc1c(C)noc1C)n2C | inconclusive [activator, partial curve] | – |

| Compound | Potency | activity change, negative = inhibition |
| --- | --- | --- |
| CCOC(=O)Cc1csc(NC(=O)c2c(O)c3c(n(CC(C)C)c2=O)CCCC3)n1 | inconclusive [activator, partial curve] | – |
| COc1ccc2nc(/C=N/NC(=O)CCNC(=O)OC(C)(C)C)ccc2c1 | – | inactive: -2.9% |
| Oc1c(/C=N/c2ccccn2)sc2ccccc12 | inconclusive [activator, partial curve] | – |
| C=CCSc1nc2c(c(=O)[nH]1)C(C(C)C)C(C#N)=C(N)O2 (stereo not drawn) | inconclusive [activator, single point] | – |
| COc1ccc(N/N=C(\C=N\O)C(=O)c2ccc(OC)cc2)cc1 | inconclusive [activator, partial curve, poor fit] | – |
| CCn1c(=O)n(CCc2ccccc2)c(=O)c2c3c(sc21)CCCC3 | inconclusive [inhibitor, single point] | – |
| O=[N+]([O-])/C(C(Cl)=C(Cl)Cl)=C(\Sc1ccccc1)N1CCCCC1 | – | inactive: 57.7% |
| CC(/C=N/NC(=O)c1ccc(Br)cc1)=C\c1ccccc1 | inconclusive [inhibitor, single point] | – |
| CCc1ccc(C2C(C#N)=C(N)C(C#N)(C#N)C3=CCC(C(C)(C)C)CC32)cc1 (stereo not drawn) | inconclusive [inhibitor, single point] | – |
| COc1ccccc1C(C[N+](=O)[O-])c1c(N)n(C)c(=O)n(C)c1=O (stereo not drawn) | active: 10 µM | – |
| Cc1nn(Cc2ccc(Cl)cc2)c(=O)n1N(C)c1ncc(C(F)(F)F)cc1Cl | inconclusive [inhibitor, single point] | – |
| CCCCCNS(=O)(=O)c1cc(C)ccc1OC | – | inactive: 9.1% |
| COCCn1nnnc1CN(Cc1cccnc1)Cc1cc2cc(OC)ccc2[nH]c1=O | – | inactive: -4.47% [at 46.1 µM] |
| COc1ccc(C(C(=O)NC2CCCCC2)N(C(=O)CCCC(=O)Nc2ccccn2)c2ccc3c(c2)OCCO3)cc1 (stereo not drawn) | inconclusive [inhibitor, single point] | – |
| N#CCC(=O)N/N=C/c1cc(-c2ccccc2)n(-c2ccc(Cl)cc2)c1-c1ccccc1 | – | inactive: -41.5% |
| COC(=O)CSc1nnc(-c2ccccn2)n1N | inconclusive [activator, single point] | – |
| N#CC1=C(N)Oc2cc3ccccc3cc2C1c1cccs1 (stereo not drawn) | – | inactive: -8.37% [at 46.1 µM] |
| CCN1CCN(Cc2nc3c(c(=O)n(C)c(=O)n3C)n2CC(=O)c2ccccc2)CC1 | inconclusive [inhibitor, single point] | – |
| CCOC(=O)C(=CNc1cccnc1Oc1ccc(C)c2c1CCC2)C(=O)OCC | inconclusive [activator, partial curve] | – |
| Cc1ccc(S(=O)(=O)/C(C#N)=C/c2c(N3CCN(C)CC3)nc3c(C)cccn3c2=O)cc1 | inconclusive [inhibitor, partial curve] | – |
| O=C(c1nn2c(C(F)(F)F)cc(-c3ccco3)nc2c1Br)N1CCCc2ccccc21 | inconclusive [inhibitor, single point] | – |
| C=C1SC(=Nc2c(C)cccc2Cl)N(C(=O)c2sc3ccccc3c2Cl)C12CCCCC2 | inconclusive [activator, partial curve] | – |
